# Measured values reported in publication PMC4336329 (PLoS ONE, 2015).
# The campaign covered roughly 310,000 compounds. About 2,200 (0.71%) showed an effect of 50% or more. Effects have a minus sign here. The list shows a part of the results.
# Molecular target: human ether-à-go-go-related gene (hERG) potassium channel (human, UniProt Q12809)
# Assay: primary screen, population patch clamp on CHO cells stably expressing hERG
# human ether-à-go-go-related gene (hERG) potassium channel, sequence (Q12809 whole entry, looked up): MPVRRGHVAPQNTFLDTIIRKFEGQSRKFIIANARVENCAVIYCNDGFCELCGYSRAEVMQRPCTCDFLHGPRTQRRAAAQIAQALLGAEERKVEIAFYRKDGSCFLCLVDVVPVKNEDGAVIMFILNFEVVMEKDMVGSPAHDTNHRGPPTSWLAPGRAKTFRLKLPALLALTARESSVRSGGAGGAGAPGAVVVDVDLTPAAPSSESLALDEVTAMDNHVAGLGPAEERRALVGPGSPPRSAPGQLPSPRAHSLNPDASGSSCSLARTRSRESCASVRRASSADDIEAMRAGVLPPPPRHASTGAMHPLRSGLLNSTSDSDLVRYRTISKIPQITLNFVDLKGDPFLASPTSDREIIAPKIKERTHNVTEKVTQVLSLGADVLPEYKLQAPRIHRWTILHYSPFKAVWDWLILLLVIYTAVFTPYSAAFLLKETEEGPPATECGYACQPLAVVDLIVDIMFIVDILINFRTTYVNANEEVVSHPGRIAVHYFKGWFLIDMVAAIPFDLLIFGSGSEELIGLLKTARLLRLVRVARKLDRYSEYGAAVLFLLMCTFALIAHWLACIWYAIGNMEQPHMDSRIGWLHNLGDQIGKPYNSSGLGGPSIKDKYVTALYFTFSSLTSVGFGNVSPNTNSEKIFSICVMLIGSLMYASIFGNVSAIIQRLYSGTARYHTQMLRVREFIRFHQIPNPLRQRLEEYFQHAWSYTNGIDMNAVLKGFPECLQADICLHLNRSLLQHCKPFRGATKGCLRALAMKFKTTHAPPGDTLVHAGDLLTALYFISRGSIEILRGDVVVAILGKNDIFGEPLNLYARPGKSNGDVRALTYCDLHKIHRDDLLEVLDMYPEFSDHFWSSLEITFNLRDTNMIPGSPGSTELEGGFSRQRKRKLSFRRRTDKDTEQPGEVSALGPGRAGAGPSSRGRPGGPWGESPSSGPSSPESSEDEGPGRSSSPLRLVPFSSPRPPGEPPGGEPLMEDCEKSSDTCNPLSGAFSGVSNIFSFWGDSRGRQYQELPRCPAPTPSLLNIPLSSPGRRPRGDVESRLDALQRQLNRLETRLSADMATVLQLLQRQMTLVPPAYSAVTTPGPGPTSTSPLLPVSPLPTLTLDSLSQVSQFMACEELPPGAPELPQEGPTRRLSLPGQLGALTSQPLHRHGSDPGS
row,Structure (SMILES),"hERG current change (%, negative = inhibition) at 1uM [%]"
1,CN1CCN(C(=O)CSc2ccc(C(F)(F)F)cc2[N+](=O)[O-])CC1,-9.45
2,Cc1ccc(S(=O)(=O)N(CC(=O)Nc2cccnc2)c2cccc([N+](=O)[O-])c2)cc1,-4.38
3,Cn1cc(/C=N/NC(=O)c2ccc(C#N)cc2F)c2ccccc21,12.6
4,C=CCn1c(N)c(C(=O)NCC2CCCO2)sc1=S (stereo not shown),10.9
5,COc1ccc(CC(=O)N2CCN(c3ccccn3)CC2)cc1OC,13.4
6,Nc1cc(=O)[nH]c(=O)n1CC1CC1,18.7
7,COc1ccc(C#Cc2c(-c3ccsc3)oc3ccc(N4CCOCC4)cc23)cc1,6.13
8,COc1ccc(-c2noc(C3CCCN(C(=O)c4cccc(C)c4)C3)n2)cc1 (stereo not shown),9.91
9,COc1cc(Cl)c(C)cc1NC(=O)c1cccc(OC)c1OC,13.2
10,O=C(COC(=O)CNC(=O)c1ccccc1)Nc1ccc(Cl)cc1C(F)(F)F,0.717
11,CCN1CCN(CCCN(Cc2ccco2)C(=S)Nc2ccc(Cl)cc2)CC1,-18.6
12,Fc1ccc(-c2[nH]ncc2-c2nnnn2-c2ccccc2)c(F)c1,10.6
13,COc1cccc(NC(=O)Cc2ccc3ccccc3c2)c1,19.3
14,COC(=O)Cc1ccc(NC(=O)c2ccc(NC(=O)c3ccco3)cc2)cc1,12.9
15,CCN(CC)c1nc2c(c(=O)[nH]c(=O)n2C)n1CCCc1ccccc1,9.42
16,N#CCc1c(C#N)c(N)nc(N2CCN(S(=O)(=O)c3ccccc3)CC2)c1C#N,3.87
17,COc1ccc(-n2nc(C(=O)NCC(=O)N3CCC(C(N)=O)CC3)c3ccccc3c2=O)cc1OC,9.79
18,CCOC(=O)CN1C(=O)NC2NC(=O)NC21 (stereo not shown),13.6
19,COC(=O)c1[nH]c2cc(C)ccc2c1NC(=O)CN1CCN(C(=O)c2ccco2)CC1,-9.79
20,COc1cccc(CNC(=S)Nc2cc(C)cc(C)c2)c1,10.7
21,COc1ccc(CNS(=O)(=O)c2ccc3c(c2)CCN3C(=O)C2CC2)cc1,5.86
22,O=[N+]([O-])c1ccccc1S(=O)(=O)c1ccccc1[N+](=O)[O-],13.6

row,Structure (SMILES),"hERG current change (%, negative = inhibition) at 1uM [%]"
1,Cn1ncc(N=Cc2ccccc2O)c1C(=O)N1CCOCC1,7.67
2,FC(F)(F)c1ccccc1NC(=S)N1CCCCCC1,15.5
3,O=C(CNC(=O)C1CCCC1)Nc1ccccc1Br,9.17
4,Cc1cc(C(=O)NNc2cc(Cl)ccc2Cl)no1,10.5
5,COc1ccc(OC)c(NC(=O)CC2SC(=Nc3ccccc3)N(CCc3ccccn3)C2=O)c1 (stereo not shown),3.19
6,CC(C)C(=O)NC(=S)Nc1c(Cl)ccc2nsnc12,4.14
7,COc1ccccc1-c1cc(C(=O)NCCN2CCOCC2)no1,1.11
8,O=C(O)c1ccc2c(=O)n3c(nc2c1)/C(=C/c1cccc(Cl)c1Cl)CCCC3,10.6
9,CC(NC(=O)COc1ccccc1)C(=O)N1CCN(c2ccccc2)CC1 (stereo not shown),11.6
10,COc1ccc(CCN=C2SCC(=O)N2Cc2ccccc2)cc1OC,11.9
11,Cc1ccc(/C=N/NC(=O)c2cccc(S(=O)(=O)Nc3ccccc3Cl)c2)s1,-0.199
12,COc1ccc(C2C3=C(CCCC3=O)Nc3nc(C(F)(F)F)nn32)c(OC)c1OC (stereo not shown),-2.14
13,CCN(CC(=O)Nc1ccc(NC(C)=O)cc1)C(=O)c1cc2ccccc2oc1=O,9.24
14,CC(Oc1ccccc1)C(=O)Nc1ccc(S(=O)(=O)N2CCN(C)CC2)cc1 (stereo not shown),8.39
15,CCN1C(=O)/C(=C/N2CC(C)CC(C)C2)SC1=S (stereo not shown),-13.1
16,O=C(Nc1ccc(O)c2c(=O)cc(-c3ccccc3Cl)oc12)c1ccccc1Cl,4.04
17,CCCn1c(N2CCN(C(=O)NCc3ccccc3)CC2)nc2ccccc21,-16.9
18,CCOc1ccc(C(=O)NNC(=O)CCNC(=O)c2ccco2)cc1OC,13.8
19,CCCCn1c(N)c(N(CC)C(=O)c2ccc(N3CCCC3=O)cc2)c(=O)[nH]c1=O,-5.13
20,Cc1cc(N2C(=O)c3ccc(C(=O)Nc4ccccc4O)cc3C2=O)no1,15.8
21,COc1ccc2[nH]c3c(NCCCN4CCCC4=O)ncnc3c2c1,9.41
22,O=S(=O)(NC(=NC1CCCCC1)c1ccccc1)c1ccc(F)cc1,-1.84

row,Structure (SMILES),"hERG current change (%, negative = inhibition) at 1uM [%]"
1,COc1cccc(OCC(=O)NC2CCCCCC2)c1,6.15
2,Cc1cnc(C(=O)Nc2cc(F)ccc2C)cn1,20.6
3,O=C(COC(=O)Cc1c(Cl)cccc1Cl)Nc1ccc(OC(F)(F)F)cc1,10.2
4,CC1CC(=O)N(CC(=O)NCc2ccc3c(c2)OCO3)c2ccccc2S1 (stereo not shown),8.15
5,CCc1nnc(NS(=O)(=O)c2ccc(N/C=C\C(=O)c3cccc(OC)c3)cc2)s1,22.5
6,Cc1cc(Oc2ccc(-c3nnc(-c4ccccc4)o3)cc2[N+](=O)[O-])ccc1Cl,12.5
7,Cc1c(NC(=O)C2CCN(S(=O)(=O)c3ccc(Cl)cc3)CC2)c(=O)n(-c2ccccc2)n1C,17.1
8,CC1(C)CC(=O)C=C(Nc2ccccn2)C1,0.961
9,CCSc1ccc(/C(N)=N/OC(=O)c2cccs2)cn1,8.95
10,O=C(c1ccc(Br)s1)N1CCc2ccccc2C1,1.86
11,O=C1CC(N2CCN(Cc3ccccc3)CC2)C(=O)N1c1ccccc1 (stereo not shown),9.52
12,CCOC(=O)[C@H]1[C@H]2COc3cc(OC)ccc3[C@@H]2N2C(=O)CN(Cc3ccccc3)C(=O)[C@@]12C,19.6
13,FC(F)(F)c1cc(-c2ccccn2)nc2cc(-c3ccccc3)nn12,16.2
14,Cc1ccc(C(=O)OCc2nnc(-c3ccccc3)o2)cc1S(=O)(=O)N1CCOCC1,5.51
15,Cl.Fc1ccc(Nc2ncnc3sc4c(c23)CCC4)cc1,1.46
16,CCOC(=O)Nc1ccc(S(=O)(=O)Nn2cnnc2)cc1,5.84
17,Cc1cn2nc(N)c3ccccc3c2n1,-2.63
18,CCOc1ccc(-c2c(C(=O)N/N=C/c3sccc3C)nnn2-c2nonc2N)cc1,14.8
19,O=C(Nc1cnc2sccn2c1=O)c1ccccc1Cl,10.7
20,CC(C)(C)C(=O)NNC(=O)C1CC1(c1ccccc1)c1ccccc1 (stereo not shown),11.3
21,O=C(CCC(=O)c1ccc(F)cc1)NCc1ccccc1C(F)(F)F,22.2
22,COc1ccc(C(CNC(=O)c2cc3ccccc3cc2O)N2CCOCC2)cc1 (stereo not shown),5.01

row,Structure (SMILES),"hERG current change (%, negative = inhibition) at 1uM [%]"
1,CC(=O)c1ccc(NC(=O)Nc2ccncc2)cc1,13.5
2,CC1(C(=O)NC2CCCCC2)CCC(=O)N1Cc1cccnc1 (stereo not shown),14.3
3,Cc1ccc(COc2ccsc2C(=O)NN)cc1,12.8
4,CSc1ncc(C(=O)O)c(C)n1,-6.2
5,CCOC(=O)C(Oc1ccc2c(-c3ccccc3)cc(=O)oc2c1C)c1ccccc1 (stereo not shown),11
6,Cc1ccn2c(c1)nc(=O)c1cc(S(=O)(=O)N3CCC(C)CC3)ccc12,-2.56
7,O=C(COc1ccc(Br)cc1Cl)N1CCN(c2ncccn2)CC1,-16.8
8,COC(=O)c1ccc(NC(=O)COc2ccc(S(=O)(=O)NC(C)(C)C)cc2)cc1,10.4
9,COCCCNC(=O)/C(C#N)=C/c1c(N2CCN(C)CC2)nc2c(C)cccn2c1=O,14
10,COc1ccc(-c2nc(N)n[nH]2)cc1,17.8
11,Cc1cc(NC(=O)c2c(Cl)c(C)nn2C)no1,14.3
12,COC(=O)c1ccccc1OCCOCCOc1cccc2ccc(C)nc12,-6.64
13,COc1cccc(CNC(=O)c2ccccc2-c2ccccc2C(=O)O)c1,16
14,COc1ccc(NC(=O)CSc2nnc(NC(=O)c3ccco3)s2)cc1,14.3
15,O=C1CCN(Cc2ccc([N+](=O)[O-])cc2)CCN1[C@H](CO)c1ccccc1,-5.61
16,CC1CN(C(=O)c2ccc(CNS(=O)(=O)c3cccc(C(F)(F)F)c3)cc2)CC(C)O1 (stereo not shown),13
17,CC(=O)NCCNC(=O)CNC(=O)c1ccc(Cl)cc1,8.38
18,CC(=O)Nc1ccc(S(=O)(=O)N2CC3(C)CC2CC(C)(C)C3)cc1 (stereo not shown),11.6
19,COC(=O)c1ccc2c(=O)n(Cc3ccco3)c(SCC(=O)Nc3ccccc3Cl)nc2c1,-1.19
20,CCOc1c(CNCc2ccc(C(=O)O)cc2)cccc1OC.Cl,3.09
21,N#Cc1c(NC(=O)CSc2nnc(-c3ccncc3)n2CC2CCCO2)sc2c1CCCC2 (stereo not shown),-15
22,Nc1ccc(N2CCCCC2)c(S(=O)(=O)Nc2ccc(Cl)cc2)c1,7.39
